# Test results published in PubChem BioAssay AID504332 (National Center for Advancing Translational Sciences (NCATS), 2011).
# The whole screen tested about 350,000 compounds, of which about 31,000 (8.9%) were called active. The shares of active, inactive and inconclusive entries below differ from those in the screen. Calls follow the shape of the dose curve; as a rule, active = well fitted inhibition curve with a large enough effect; inconclusive = small, poorly fitted or top-dose-only effect; inactive = no such curve, though single readings can be large or run the other way. Potencies of inconclusive entries are doubtful fits and often do not repeat.
# Molecular target: Histone-lysine N-methyltransferase EHMT2 (Homo sapiens) (UniProt Q96KQ7)
# Chain of UniProt Q96KQ7 (Q96KQ7 whole entry, looked up): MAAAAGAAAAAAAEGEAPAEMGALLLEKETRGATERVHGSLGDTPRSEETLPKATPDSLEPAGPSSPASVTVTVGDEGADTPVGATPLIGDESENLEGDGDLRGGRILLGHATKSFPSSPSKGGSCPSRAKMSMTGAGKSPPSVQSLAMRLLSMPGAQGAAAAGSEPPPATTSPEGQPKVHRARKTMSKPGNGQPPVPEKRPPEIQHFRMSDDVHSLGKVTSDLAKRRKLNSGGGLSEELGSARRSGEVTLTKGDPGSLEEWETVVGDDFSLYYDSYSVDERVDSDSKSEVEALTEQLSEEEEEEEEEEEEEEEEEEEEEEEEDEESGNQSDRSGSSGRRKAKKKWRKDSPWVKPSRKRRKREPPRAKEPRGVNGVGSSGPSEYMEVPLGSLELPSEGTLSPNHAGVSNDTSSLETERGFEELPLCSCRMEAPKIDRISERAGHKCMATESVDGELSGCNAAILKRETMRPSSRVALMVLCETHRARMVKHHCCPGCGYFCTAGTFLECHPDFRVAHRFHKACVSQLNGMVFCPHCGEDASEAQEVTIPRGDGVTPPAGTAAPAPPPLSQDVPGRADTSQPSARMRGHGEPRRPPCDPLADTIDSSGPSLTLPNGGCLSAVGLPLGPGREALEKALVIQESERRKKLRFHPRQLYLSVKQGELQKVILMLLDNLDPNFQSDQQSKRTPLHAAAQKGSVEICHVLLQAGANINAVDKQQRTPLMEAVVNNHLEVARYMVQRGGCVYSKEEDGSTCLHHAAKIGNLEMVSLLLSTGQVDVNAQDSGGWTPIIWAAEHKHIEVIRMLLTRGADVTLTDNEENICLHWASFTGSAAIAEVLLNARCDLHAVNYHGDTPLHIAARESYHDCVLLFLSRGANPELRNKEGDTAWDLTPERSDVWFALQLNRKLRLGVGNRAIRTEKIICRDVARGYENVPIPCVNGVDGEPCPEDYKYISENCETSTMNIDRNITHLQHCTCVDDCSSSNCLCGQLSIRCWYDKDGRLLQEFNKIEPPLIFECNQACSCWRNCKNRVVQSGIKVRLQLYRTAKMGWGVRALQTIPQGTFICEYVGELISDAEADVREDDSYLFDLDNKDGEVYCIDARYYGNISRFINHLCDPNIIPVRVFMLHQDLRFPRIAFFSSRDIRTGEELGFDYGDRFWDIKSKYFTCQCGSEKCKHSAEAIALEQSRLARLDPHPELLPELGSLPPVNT
# Test: qHTS Assay for Inhibitors of Histone Lysine Methyltransferase G9a; also: nearly all actives have a fitted effect of over 75% in size
# Details: G9a H3K9 monomethylation, AlphaScreen, 2 h; activity, negative = inhibition: at 59 µM (top of the series) unless noted
# Procedure, shortened: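 Enzyme 20 nM + cpd, 15 min RT; add b-H3K9 pep 500 nM / SAM 20 uM; 2 h RT; anti-H3K9me1 Ab 0.5 ug/mL + SA donor / anti-rabbit acceptor beads 20 ug/mL each, 10 min; AlphaScreen read.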
# % is scaled to controls: 0 for no effect and ±100 for the full control effect; potency is read from the fitted curve at half-maximal effect; tags tell the direction and shape of the fitted curve.
Structure (SMILES),Potency,"activity, negative = inhibition"
CCN(CC)Cc1c(NC(=O)c2ccccc2)sc(C)c1C,"inconclusive: 39.8 µM [inhibitor, single point]",
Cc1ccc(NC(=O)CN(C)C(=O)Cn2ncc(Cl)c(Cl)c2=O)cc1,"inconclusive: 89.1 µM [inhibitor, single point]",
Cc1ccc(CNC(=O)COC(=O)C2CCN(S(=O)(=O)c3cccs3)CC2)cc1,,inactive: 4.3% [at 102 µM]
COc1ccccc1CNC(=O)CSc1nnc2c(n1)[nH]c1ccc(F)cc12,,inactive: 26%
Nc1ccc(C23CC4CC(CC(CO)(C4)C2)C3)cc1,"inconclusive: 35.5 µM [inhibitor, partial curve]",
O=C(CCCc1c[nH]c2ccccc12)Nc1ccc2ccccc2c1,"inconclusive: 31.6 µM [inhibitor, single point]",
CCOc1ccccc1NS(=O)(=O)c1ccc(OC)c(OC)c1,,inactive: 13.3%
O=C(NC(=S)N1CCCc2ccccc21)c1ccc([N+](=O)[O-])cc1,active: 10 µM,
CCN1/C(=C/C=C/c2oc3ccc4ccccc4c3[n+]2CC)Oc2ccc3ccccc3c21,"inconclusive: 7.08 µM [inhibitor, full curve, poor fit]",
NC(=O)c1sc2nccc(Nc3ccccc3)c2c1N,"inconclusive: 11.2 µM [inhibitor, single point]",
Cc1onc(-c2ccccc2)c1C(=O)Nc1nc2c(s1)CCCC2,"inconclusive: 89.1 µM [inhibitor, single point]",
S=c1[nH]nc(COc2ccc3c(c2)OCO3)n1-c1ccccc1,active: 0.708 µM,
COc1ccc(-c2csc3ncnc(Nc4cc(OC)cc(OC)c4)c23)cc1,,inactive: 25.4%
Cc1ccc(-n2c(SCC(=O)c3ccccc3)nc3c([nH]c4ccccc43)c2=O)cc1,,inactive: 8.15%
Cc1nn(-c2cccc(C(F)(F)F)c2)c(Cl)c1/C=N/Nc1cccc(C(=O)O)c1,"inconclusive: 28.2 µM [inhibitor, single point]",
Cc1ccc(N(CC(=O)N2CCN(Cc3ccccc3)CC2)S(C)(=O)=O)cc1C,,inactive: -4.78% [at 102 µM]
CC(C)(CSc1nncn1N)NS(=O)(=O)c1ccc(Cl)cc1,"inconclusive: 2.82 µM [inhibitor, partial curve, poor fit]",
Cc1nnc(NC(=O)CSc2nc3c(c(=O)n2C)SC(C)C3)s1 (configuration not stated),"inconclusive: 89.1 µM [inhibitor, single point]",
CCC(=O)N1CCc2cc(S(=O)(=O)Nc3cc(C)ccc3OC)ccc21,,inactive: -13%
COc1cc(C(=O)NCc2cc(C)nc3ccccc23)cc(OC)c1OC,"inconclusive: 39.8 µM [inhibitor, partial curve, poor fit]",
CCOC(=O)C(O)(C1C(=O)CC(C)(C)CC1=O)C(F)(F)F (configuration not stated),"inconclusive: 79.4 µM [inhibitor, single point]",
c1cc2c(nn1)CCc1nonc1-2,"inconclusive: 79.4 µM [inhibitor, single point]",
COc1cc(NC(=S)Nc2ncccc2C)cc(OC)c1OC,active: 10 µM,
CCCCC(Sc1nc2cc3c(cc2c(=O)n1CCCC(=O)NCc1ccc2c(c1)OCO2)OCO3)C(=O)OCC (configuration not stated),,inactive: 5.32%

Structure (SMILES),Potency,"activity, negative = inhibition"
CC(=O)NC(=S)Nc1ccc(NC(=O)c2cccs2)cc1,"inconclusive: 89.1 µM [inhibitor, single point]",
O=C(NC(=S)N1CCc2ccccc21)c1ccccc1Br,"inconclusive: 89.1 µM [inhibitor, single point]",
CC(C)n1cnc2c(Nc3cccc(F)c3)nc(NCCO)nc21,,inconclusive: -56.2% [inhibitor]
O=S(=O)(Nc1cc(S(=O)(=O)N2CCOCC2)ccc1NCC1CCCO1)c1ccccc1 (configuration not stated),"inconclusive: 8.91 µM [inhibitor, single point]",
O=C(Nc1ccc2oc(-c3cccc(F)c3)nc2c1)c1ccc2ccccc2c1,"inconclusive: 22.4 µM [inhibitor, partial curve, poor fit]",
CNS(=O)(=O)c1cccc(C(=O)OCC(=O)N2CCc3ccccc3C2)c1,"inconclusive: 2.24 µM [inhibitor, partial curve, poor fit]",
COc1ccc2oc(C(=O)N(C)Cc3ccc(OC(F)F)cc3)c(C)c2c1,,inactive: 94.3% [at 102 µM]
CCOc1cc(C2NN=C(c3ccccc3)S2)ccc1OCc1ccccc1Cl (configuration not stated),"inconclusive: 3.16 µM [inhibitor, full curve, poor fit]",
CC1CC(C)CN(C(=O)COC(=O)C2CCN(S(=O)(=O)c3ccc4c(c3)OCCO4)CC2)C1 (configuration not stated),"inconclusive: 50.1 µM [inhibitor, partial curve, poor fit]",
COc1ccc(CCNC(=O)Cc2c(C)c3ccc(O)c(C)c3oc2=O)cc1OC,,inactive: -4.04%
O=C(NCCC1=CCCCC1)c1coc(=O)c(Br)c1,,inactive: 7.76%
O=c1n(Cc2ccc([N+](=O)[O-])cc2)c2ccccc2c2nc(-c3ccccc3)nn12,,inactive: 5.29%
Cc1ccc(S(=O)(=O)N2CCN(C(=O)Cc3ccccc3)CC2)cc1C,"inconclusive: 3.55 µM [inhibitor, single point]",
Cn1ccnc1SCc1cn2ccccc2n1,"inconclusive: 79.4 µM [inhibitor, single point]",
Cc1nc(Cl)sc1C(=O)O,"inconclusive: 79.4 µM [inhibitor, single point]",
CCOC(=O)C1=C(CNCc2ccc(F)cc2)NC(=O)NC1c1cccc([N+](=O)[O-])c1 (configuration not stated),"inconclusive: 44.7 µM [inhibitor, partial curve, poor fit]",
Cc1cccc(/N=C/c2c(O)cc(C)oc2=O)n1,active: 12.6 µM,
Cc1ccc(C(=O)c2cc([N+](=O)[O-])ccc2N2CCOCC2)cc1C,"inconclusive: 31.6 µM [inhibitor, single point]",
Cc1cc(C)c(S(=O)(=O)NCC2CCC(C(=O)NCc3ccccn3)CC2)c(C)c1 (configuration not stated),,inactive: -20.8% [at 102 µM]
COCCN=C1Sc2nc3cc4c(cc3cc2CN1CC1CCCO1)OCO4 (configuration not stated),,inactive: 3.17% [at 0.501 µM]
CSc1nsc(SCC(=O)Nc2ccc(Cl)c(C(=O)O)c2)n1,active: 50.1 µM,
O=C(CS(=O)(=O)c1ccc(Cl)cc1)Nc1nc2ccc(Br)cc2s1,"inconclusive: 5.01 µM [inhibitor, partial curve, poor fit]",
Cn1c(=O)n(C)c2cc(CNCc3ccc(F)cc3)ccc21,,inactive: -3.71%
O=C1CNC(=S)N1c1nc(-c2ccccc2)cs1,"inconclusive: 89.1 µM [inhibitor, single point]",

Structure (SMILES),Potency,"activity, negative = inhibition"
CN1C(=O)Cc2cc(S(=O)(=O)Nc3ccc(N4CCOCC4)cc3)ccc21,active: 79.4 µM,
COc1cc2ccccc2cc1C(=O)Nc1ccc(NC(=O)c2cccs2)cc1,,inactive: 28.3% [at 102 µM]
CCOc1ccc(C2=C(C(C)=O)Sc3nnc(C)n3N2C(C)=O)cc1,"inconclusive: 15.8 µM [inhibitor, partial curve, poor fit]",
O=C(CNCC1CCCO1)Nc1ccc(N2CCCCCC2)cc1 (configuration not stated),"inconclusive: 0.316 µM [inhibitor, partial curve, poor fit]",
O=C(NNS(=O)(=O)c1ccc(F)cc1)c1ccc(S(=O)(=O)N2CCCCC2)cc1,"inconclusive: 22.4 µM [inhibitor, single point]",
COc1ccc(NC(C)=O)cc1NC(=O)c1ccc2ccccc2c1,,inactive: 16.6%
CCOC(=O)c1ccc(S(=O)(=O)N2CCN(Cc3cc4c(cc3O)OCO4)CC2)cc1,active: 0.398 µM,
O=C(Nc1ccc2c(c1)OCO2)c1c[nH]c(=O)n(-c2ccc(F)cc2)c1=O,active: 56.2 µM,
C[C@H](NC(=O)CCCOc1ccc(Cl)cc1Cl)c1nnc2ccccn12,"inconclusive: 39.8 µM [inhibitor, single point]",
COc1ccc(NC(=S)NC(=O)c2cncc(Br)c2)c(OC)c1,"inconclusive: 79.4 µM [inhibitor, single point]",
COc1ccccc1OCC(=O)Nc1ccncc1,,inactive: 16.3% [at 102 µM]
Cc1c([N+](=O)[O-])c([N+](=O)[O-])nn1CC(=O)NCc1cccnc1,"inconclusive: 89.1 µM [inhibitor, partial curve, poor fit]",
Cc1oc2ncn(CC(C)C)c(=O)c2c1C(=O)N1CCN(c2ccccc2F)CC1,,inactive: 2.53%
CC(=O)Nc1ccc(S(=O)(=O)N2CCC(C(=O)N[C@@H](C)C(=O)NC3CCCC3)CC2)cc1,,inactive: -2.58%
O=[N+]([O-])c1cc(/C=N/O)ccc1Sc1ccccc1,"inconclusive: 14.1 µM [inhibitor, partial curve, poor fit]",
O=C(CNC(=S)N(Cc1ccccc1)Cc1ccccc1F)NCCc1ccc(Cl)cc1,,inactive: 4.13% [at 102 µM]
Fc1ccccc1/C=C1\CCCC2=C1Nc1nnnn1C2c1ccccc1F (configuration not stated),active: 50.1 µM,
CCC(C)/C(C)=N/NC(=O)c1cn(-c2ccccc2)nc1-c1ccccc1 (configuration not stated),,inactive: 35.2%
Cn1cccc1-c1nc2ccc(NC(=O)c3ccc([N+](=O)[O-])cc3)cc2[nH]1,"inconclusive: 89.1 µM [inhibitor, single point]",
O=C(Oc1ccc2ccc(OC(=O)N3CCOCC3)cc2c1)N1CCOCC1,,inactive: 1.93%
CCOC(=O)C(=O)NCC(c1ccco1)S(=O)(=O)c1cccs1 (configuration not stated),"inconclusive: 89.1 µM [inhibitor, single point]",
CCOc1ccc(NC(=O)c2cnn3c2NC(c2ccccc2)=CC3c2cccc(OC)c2OC)cc1 (configuration not stated),"inconclusive: 20 µM [inhibitor, partial curve, poor fit]",
Clc1ccc(-c2nnn3c2nc(N2CCCCC2)c2ccccc23)cc1,,inactive: 50%
O=[N+]([O-])c1c(C(Cl)Cl)nn(-c2ccccc2)c1N1CCOCC1,"inconclusive: 79.4 µM [inhibitor, single point]",
